{"source": "PubChem BioAssay AID686978", "about": "(National Center for Advancing Translational Sciences (NCATS), 2013)", "note": "About 64,000 (15%) of roughly 420,000 compounds were called active. Inconclusive results, whose numbers are uncertain, are shown with a selection of clear calls. Calls follow the shape of the dose curve; as a rule, active = well fitted inhibition curve with a large enough effect; inconclusive = small, poorly fitted or top-dose-only effect; inactive = flat fitted curve, though single readings scatter. No potency is given beside an inconclusive call; the fits are too rough. % is scaled to controls: 0 for no effect and ±100 for the full control effect; potency is read from the fitted curve at half-maximal effect; tags tell the direction and shape of the fitted curve.", "data": [{"test": "qHTS for Inhibitors of human tyrosyl-DNA phosphodiesterase 1 (TDP1): qHTS in cells in absence of CPT; also: nearly all actives have a fitted effect of over 55% in size", "conditions": "DT40 Tdp1-/- hTDP1 cells, no CPT, ATP luminescence, 48 h; activity change, negative = growth inhibition: at 46.2 µM (top of the series) unless noted", "in_short": "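No-CPT arm: Tdp1-/-;hTDP1 DT40 cells (400/well) plus compounds, incubated ≥48 hr at 37 °C. Readout CellTiter-Glo luminescence.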", "values": [{"smiles": "CSCCCNC(=O)c1ccccc1OC1CCN(S(C)(=O)=O)CC1", "Potency": "inactive"}, {"smiles": "COC(=O)c1cccc(NC(=O)/C(=C\\c2ccccc2)NC(=O)c2ccccc2Cl)c1", "Potency": "inconclusive [inhibitor, partial curve, poor fit]"}, {"smiles": "CC1CCN(c2c(NCC3CCC(C(=O)NCCc4ccccc4)CC3)c(=O)c2=O)CC1", "note": "(centres undefined)", "Potency": "inconclusive [inhibitor, single point]"}, {"smiles": "CCOC(=O)C1=C(CNCc2ccccc2Cl)NC(=O)NC1c1ccc2c(c1)OCO2", "note": "(centres undefined)", "Potency": "inconclusive [inhibitor, partial curve, poor fit]"}, {"smiles": "C#CCOCCOCCOCCNc1nc(N2CCN(C(=O)CCCCCCCCCCNC(=O)[C@H]([C@@H](C)CC)n3cc(CCCCN=C(N)N)nn3)CC2)nc(N2CCN(C(=O)CCCCCCCCCCNC(=O)[C@H](CCCCN)n3cc(C)nn3)CC2)n1", "Potency": "active: 8.2 µM"}, {"smiles": "Cn1c(-c2ncc(F)cc2F)cc2onc(-c3c(F)cccc3Cl)c2c1=O", "Potency": "inconclusive [inhibitor, single point]"}, {"smiles": "CC(C)(C)c1nnc(NC(=O)c2cccnc2Cl)s1", "Potency": "inactive"}, {"smiles": "CC(C)N(Cc1nc(-c2ccc(Cl)cc2)no1)C(=O)C(c1ccccc1)c1ccccc1", "Potency": "inconclusive [inhibitor, single point]"}, {"smiles": "CC(NC(=O)c1c(O)c2ccccc2[nH]c1=O)c1ccccc1", "note": "(centres undefined)", "Potency": "inactive"}, {"smiles": "CN(C)c1nc(SCc2ccc(Cl)cc2)nc2c1CCCC2", "Potency": "inconclusive [inhibitor, single point]"}, {"smiles": "NC(=O)CCN1CCN(CCOC2Cc3cc(Cl)ccc3Sc3ccccc32)CC1", "note": "(centres undefined)", "Potency": "inconclusive [inhibitor, single point]"}, {"smiles": "CCOC(=O)c1sc(NC(=O)CSc2nnc(-c3ccco3)n2CC)c(C(=O)OCC)c1C", "Potency": "inconclusive [inhibitor, single point]"}, {"smiles": "COc1ccc(N2CCN(C(=O)c3cn(CC4CCCCC4)nn3)CC2)cc1", "Potency": "inconclusive [inhibitor, partial curve]"}, {"smiles": "CN1CCCC2(CCN(S(=O)(=O)c3ccccc3)CC2)C1", "Potency": "inactive"}, {"smiles": "CN(C)c1cccc2c1C(=O)c1ccccc1C2=O", "Potency": "inconclusive [inhibitor, single point]"}, {"smiles": "CC(c1ccon1)N(C)Cc1cn(Cc2ccccc2)nc1-c1ccc2c(c1)OCO2", "note": "(centres undefined)", "Potency": "inconclusive [inhibitor, single point]"}, {"smiles": "Cc1ccc2c(C)c(C(=O)N3CCN(c4cnccn4)CC3)oc2c1C", "Potency": "active: 18.4 µM"}, {"smiles": "CC(C)(C)NC(=O)C(c1cccs1)N(CC1CCCO1)C(=O)Cn1nnc(-c2cccs2)n1", "note": "(centres undefined)", "Potency": "inactive"}, {"smiles": "CCOC(=O)C1CCCCN1Cc1cccc(Oc2ccccc2)c1", "note": "(centres undefined)", "Potency": "inconclusive [inhibitor, single point]"}, {"smiles": "CCC(=O)N(Cc1cc2cc(OC)ccc2[nH]c1=O)c1ccccc1OC", "Potency": "inconclusive [inhibitor, single point]"}, {"smiles": "CCN1C(=NCc2ccc(OC)cc2)N[C@@H](CCc2ccccc2)[C@H](C(=O)NCc2ccc(OC)cc2)[C@H]1C", "Potency": "active: 9.2 µM"}, {"smiles": "CCc1ccc(N2CC(C(=O)OCC(=O)NNC(=O)c3ccccc3)CC2=O)cc1", "note": "(centres undefined)", "Potency": "inactive"}, {"smiles": "CCCCN1C[C@H](Cc2ccccc2)[C@@H](CC(=O)Nc2ccccc2)C1=O", "Potency": "inconclusive [inhibitor, single point]"}, {"smiles": "COc1ccc(C)cc1NC(=O)C(C)N(c1ccc(C)cc1)S(C)(=O)=O", "note": "(centres undefined)", "Potency": "inconclusive [inhibitor, partial curve, poor fit]"}, {"smiles": "CCn1c(SCc2nc3cc(OC)c(OC)cc3c(=O)[nH]2)nc2ccccc21", "Potency": "inconclusive [inhibitor, partial curve]"}, {"smiles": "O=c1[nH]c2ccccc2c(O)c1O", "Potency": "active: 5.8 µM"}, {"smiles": "CCc1ccc(/C=N/NC(=O)c2nnn(-c3nonc3N)c2CN2CCOCC2)cc1", "Potency": "inconclusive [inhibitor, single point]"}, {"smiles": "O=C(/C=C/[C@H]1O[C@@H](n2ccc(=O)[nH]c2=O)[C@H](O)[C@@H]1O)NCc1ccccc1", "Potency": "inactive"}, {"smiles": "O=C(CCN1CCN(S(=O)(=O)c2ccc(Cl)cc2)CC1)Nc1ccc(F)cc1", "Potency": "inactive"}, {"smiles": "Cc1ccc(NC(=O)CN(C)CC(=O)Nc2ccc3c(c2)OCO3)cc1", "Potency": "inconclusive [inhibitor, single point]"}, {"smiles": "Nc1nc(-c2ccc(Cl)cc2)nn1C(=O)c1cccs1", "Potency": "inactive"}, {"smiles": "Cc1nn(C)c(C)c1S(=O)(=O)N(CC(=O)Nc1ccc(F)cc1F)c1ccc(C(C)C)cc1", "Potency": "inconclusive [inhibitor, single point]"}, {"smiles": "Cc1ccc2cccc([N+](=O)[O-])c2n1", "Potency": "inconclusive [inhibitor, partial curve]"}, {"smiles": "CN(C)c1ccc(/C=C/c2cccc3ccccc23)cc1", "Potency": "inconclusive [inhibitor, partial curve]"}, {"smiles": "COc1ccc(NC(=O)Cn2c(=O)n(-c3ccc(C)cc3)c(=O)c3c2c2cc(C)ccc2n3C)cc1", "Potency": "inconclusive [inhibitor, full curve, poor fit]"}, {"smiles": "O=C(Cc1ccc([N+](=O)[O-])cc1)Nc1ccc2c(c1)OCO2", "Potency": "inconclusive [inhibitor, partial curve, poor fit]"}, {"smiles": "CCOc1cc2c3c(c1)C1(OCCO1)C(=O)N3C(C)(C)CC2C", "note": "(centres undefined)", "Potency": "inconclusive [inhibitor, single point]"}, {"smiles": "Cc1ccccc1-c1nc(NC(C)C)nc2ccsc12", "Potency": "inconclusive [inhibitor, single point]"}, {"smiles": "Cc1ccc(CN(C)C(=O)c2ccc(NS(=O)(=O)c3ccc4[nH]c(=O)[nH]c4c3)cc2)cc1", "Potency": "inactive"}, {"smiles": "O=C(Nc1cccc(C(F)(F)F)c1)c1ccc2sc([C@@H]3O[C@H](CO)[C@H](O)[C@H](O)[C@H]3O)nc2c1", "Potency": "inactive"}, {"smiles": "COc1ccc(OCc2cc(C(=O)NC(C)c3nc(C)cs3)no2)c(Cl)c1", "note": "(centres undefined)", "Potency": "inconclusive [inhibitor, single point]"}, {"smiles": "COC(=O)c1ccsc1NC(=O)CSc1nnnn1Cc1ccccc1", "Potency": "inconclusive [inhibitor, single point]"}, {"smiles": "Cc1ccc(Cc2c(C)nc3nc(SCC(=O)NCCC(C)C)nn3c2C)cc1", "Potency": "active: 23.1 µM"}, {"smiles": "Cc1c(C(=O)C(=O)NCc2ccco2)c2ccccc2n1C", "Potency": "inactive"}, {"smiles": "Cc1ccc(CN2C(=O)SC(Nc3ccc(Cl)cc3)C2=O)cc1", "note": "(centres undefined)", "Potency": "inconclusive [inhibitor, partial curve]"}, {"smiles": "COc1ccc(NC(=O)N(C)C[C@H]2Oc3ccc(NC(=O)CCN4CCOCC4)cc3C(=O)N([C@H](C)CO)C[C@@H]2C)cc1", "Potency": "inactive"}, {"smiles": "CC(C)(C)C(=O)CNCC(=O)C(C)(C)C", "Potency": "inactive"}, {"smiles": "Cc1cc(C)c2cccc(N)c2n1", "Potency": "inactive"}, {"smiles": "COc1ccc(NC(=O)C2(C)Cc3c(-c4ccc(N(C)C)cc4)ccnc3O2)cc1", "note": "(centres undefined)", "Potency": "inconclusive [inhibitor, single point]"}, {"smiles": "Cc1ccc(NC(=O)CC2OC(=O)c3ccccc32)cc1S(=O)(=O)N1CCCCCC1", "note": "(centres undefined)", "Potency": "inconclusive [inhibitor, single point]"}, {"smiles": "C/C(N)=C(/C#N)C(=O)CSc1nn(-c2ccc(Cl)cc2)c(=S)s1", "Potency": "inconclusive [inhibitor, partial curve]"}, {"smiles": "O=CNCCCc1nc2ccccc2n1Cc1cccc2ccccc12", "activity change, negative = growth inhibition": "inconclusive: -32.6% [inhibitor]"}, {"smiles": "Cc1ccccc1N(CC(=O)Nc1ccc(S(=O)(=O)N2CCOCC2)cc1)S(C)(=O)=O", "Potency": "inactive"}, {"smiles": "CCNc1nc(OC)nc(SCC(N)=O)n1", "Potency": "inactive"}, {"smiles": "CC(C)OC(=O)c1cc2c(ccn2-c2ccc(F)cc2)n1CC(=O)N1CCN(C(=O)c2ccco2)CC1", "Potency": "inconclusive [inhibitor, single point]"}, {"smiles": "O=c1/c(=C/c2ccco2)sc2n1CN(c1ccccc1)CN=2", "activity change, negative = growth inhibition": "inconclusive: -31.8% [inhibitor]"}, {"smiles": "CC1CS(=O)(=O)CCN1/N=C/c1ccc([N+](=O)[O-])o1", "note": "(centres undefined)", "Potency": "inconclusive [inhibitor, single point]"}, {"smiles": "CCCC[C@@H]1CCCO[C@@](C(=O)NCc2cc(C)n(C)n2)(C(F)(F)F)C1", "Potency": "inconclusive [inhibitor, single point]"}, {"smiles": "Cn1c(=O)[nH]c(=O)c2c1nc(Br)n2CCCSc1nc2ccccc2o1", "Potency": "active: 25.9 µM"}, {"smiles": "Cc1ccc(C(=O)NC2CCS(=O)(=O)C2)cc1S(=O)(=O)N1CCCCC1", "note": "(centres undefined)", "Potency": "inactive"}, {"smiles": "CCCOc1ccc(-c2c(C(=O)N/N=C/c3ccco3)nnn2-c2nonc2N)cc1", "Potency": "inconclusive [inhibitor, single point]"}, {"smiles": "COc1cccc(CNC(=O)C(=O)NCC(c2ccco2)S(=O)(=O)c2ccccc2)c1", "note": "(centres undefined)", "Potency": "inconclusive [inhibitor, partial curve, poor fit]"}, {"smiles": "O=C(CC1CC2CCC1C2)NCc1cccs1", "note": "(centres undefined)", "Potency": "inactive"}, {"smiles": "CC1(C)COC(/C=C/c2cccc([N+](=O)[O-])c2)=N1", "Potency": "active: 11.6 µM"}, {"smiles": "COC(CNC(=O)C1CCC(CNS(=O)(=O)c2c(C)cc(C)cc2C)CC1)OC", "note": "(centres undefined)", "Potency": "inactive"}, {"smiles": "COC(=O)[C@]12CCCCC=C1N(Cc1cccc3ccccc13)C(=O)[C@H](CC(=O)N1CCSCC1)C2", "Potency": "inconclusive [inhibitor, single point]"}, {"smiles": "COc1ccccc1NC(=O)CSc1nnc(NC(=O)C2CCC2)s1", "Potency": "inconclusive [inhibitor, single point]"}, {"smiles": "CCCCNC(=O)N1CCCN(c2ccc(C#N)cn2)CC1", "Potency": "inactive"}, {"smiles": "CC(=O)Nc1ccc(NC(=O)c2c(C)noc2C)cc1", "Potency": "inactive"}]}]}
